According to the supplement of paper PMC3334620:
Whole data set: some 33,000 sequences, median “E-score (-0.5 to 0.5)” near -0.036, cut for the highest 2% near 0.37. Some of the results follow.

target: T1, Yer064c (UniProt P40041); assay: PBM E-score (8-mer binding enrichment) (E-score (-0.5 to 0.5)); higher = stronger / more preferred TF binding; most listed sequences are background and not binding sites; details: protein concentration: 200 nM; construct: GST-full length
T1 sequence: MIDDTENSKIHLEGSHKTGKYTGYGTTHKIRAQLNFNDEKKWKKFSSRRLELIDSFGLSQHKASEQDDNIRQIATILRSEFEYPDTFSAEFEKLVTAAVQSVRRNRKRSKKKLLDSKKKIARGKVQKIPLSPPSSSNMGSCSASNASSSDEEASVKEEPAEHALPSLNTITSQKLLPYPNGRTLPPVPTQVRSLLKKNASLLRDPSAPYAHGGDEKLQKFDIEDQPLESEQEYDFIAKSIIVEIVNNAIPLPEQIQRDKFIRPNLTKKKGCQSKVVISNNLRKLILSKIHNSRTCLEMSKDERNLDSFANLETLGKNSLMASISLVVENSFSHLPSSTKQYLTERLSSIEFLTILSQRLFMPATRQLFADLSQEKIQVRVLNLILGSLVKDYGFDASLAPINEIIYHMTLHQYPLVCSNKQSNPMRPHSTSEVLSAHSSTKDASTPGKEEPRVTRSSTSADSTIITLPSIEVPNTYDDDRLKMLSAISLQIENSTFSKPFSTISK
Procedure, shortened: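 Each ungapped eight-base word and its reverse complement, pooled, received an E-score from the Universal PBM Analysis Suite. Underlying scans, normalised with masliner, recorded fluorescent anti-GST bound to GST-tagged yeast transcription factors. These were applied at about 100-200 nM to universal all-10-mer Agilent arrays double-stranded by primer extension.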

Row | Sequence | PBM E-score
1 | TAGACTGA | 0.122
2 | GTTCGGCA | -0.0843
3 | CGATCCAG | -0.238
4 | ACTCACCA | 0.388
5 | ACGCTGAG | 0.0382
6 | AAGACCCC | -0.169
7 | AAAATACC | -0.0129
8 | TAATGGAA | -0.119
9 | CGAATCAC | 0.4
10 | AAGGAACC | -0.145
11 | AAAAGTAT | 0.0634
12 | ATTTGAGA | 0.115
13 | GTGTTCTA | -0.0316
14 | ACGGCGTA | 0.0284
15 | AGCAAGCT | -0.166
16 | AGAAGTGC | -0.381
17 | AATCAACC | 0.273
18 | AACCTCGA | -0.153
19 | CTAAGAGC | -0.23
20 | AGGCCCAC | -0.315
21 | AAGCCGAC | -0.0186
22 | AACTTGGA | -0.149
23 | ACTTCCGA | 0.00292
24 | CCACCTCC | -0.283
25 | GAATACGC | -0.106

Row | Sequence | PBM E-score
26 | ACCGTCAA | -0.17
27 | CGTTCAGC | -0.155
28 | AACCGCGA | 0.0631
29 | AGGGCGAC | -0.0248
30 | GGGATGAC | 0.198
31 | TCACCGCA | 0.0844
32 | CCAGCTGG | -0.0805
33 | GAACATAA | -0.134
34 | CGTCATAG | -0.0141
35 | CGGCCTGC | -0.278
36 | TCGGGTAA | -0.033
37 | ATGGCCGA | -0.0927
38 | GGCGGCAA | -0.227
39 | GCCTAAAC | -0.0176
40 | GCGGAGAC | 0.161
41 | AGCGCGTG | -0.0222
42 | AGTAGTGC | -0.0503
43 | GTGTCTGA | 0.197
44 | CGGAAGCC | -0.341
45 | AGTGGCGA | 0.0753
46 | GCAACATA | -0.138
47 | GTGTCCTA | 0.0401
48 | GCGAAGAA | -0.0771
49 | ATTCCACG | -0.0197
50 | TGACACCA | 0.0885

Row | Sequence | PBM E-score
51 | TCGAATAA | -0.00971
52 | CGCCCAAG | -0.0982
53 | CTCGGTCC | -0.0661
54 | CCAGACAC | -0.27
55 | CTAAACTA | 0.0923
56 | CATCGCCC | -0.0376
57 | CGTGATAG | 0.0489
58 | CATTACCC | 0.0868
59 | CGGTTACA | -0.0508
60 | TGATTAAA | 0.418
61 | ACCGAGAT | -0.00548
62 | ACAGGCTA | -0.154
63 | ATTTTAAG | 0.0231
64 | CATTTTCG | 0.0515
65 | AGGTAACG | -0.0878
66 | AAGGGCGT | -0.144
67 | CACTCTCG | 0.0082
68 | GGATAGAA | -0.0854
69 | CCTGCGAG | -0.0918
70 | GCTAGACA | 0.0623
71 | GCCCTGCA | -0.179
72 | CGGCTGTA | -0.0797
73 | AACCGAAG | 0.206
74 | AGACGTAA | 0.0987
75 | AAGATACC | 0.015

Row | Sequence | PBM E-score
76 | CTCCTGAA | -0.152
77 | ATCCATTG | 0.122
78 | GGCATGGA | -0.152
79 | CTGAATGC | -0.199
80 | AGCGCCAG | -0.038
81 | CCTGTCAA | 0.0361
82 | ACTCAGGC | 0.331
83 | GTTATGTA | -0.0587
84 | AGCACCCT | -0.168
85 | CACACTCC | -0.158
86 | ACAGGGCG | -0.224
87 | TCCAGGGA | -0.0169
88 | AGGAGCTG | -0.148
89 | AAGGGCGA | -0.145
90 | ATCCCGTG | 0.0256
91 | AACATATC | -0.178
92 | GCTCGGGA | -0.0507
93 | CGGGAGAC | 0.106
94 | GATACGTA | 0.0194
95 | ATGTGTGA | 0.167
96 | ATCTTTCC | -0.0758
97 | AAGTAATC | 0.336
98 | CAAGGTCA | 0.11
99 | ATTCTCGC | -0.124
100 | AGTGAAAG | -0.0856

Row | Sequence | PBM E-score
101 | CCATGCCA | -0.113
102 | ATGAACAT | 0.00334
103 | CAAACTAG | 0.00734
104 | AGGTGCCC | -0.26
105 | CAGGATAG | -0.0344
106 | ATCTTGGC | 0.0855
107 | GAACAGTC | 0.203
108 | AGAAAGAG | 0.00362
109 | CCCGTTTC | -0.434
110 | CTCCTCGC | -0.137
111 | ATATGCGG | -0.188
112 | AGCCGCTC | -0.221
113 | ACGGAGTG | -0.215
114 | AGCGCCAT | -0.345
115 | CAAGTACC | -0.0773
116 | AGGTCGGC | -0.0326
117 | AACTCTAG | 0.0266
118 | AGATCCCT | -0.196
119 | AGCCGCTG | -0.132
120 | CACCTTCA | -0.299
121 | ACCCGTGA | 0.17
122 | CTGCTAAC | 0.0214
123 | ACCACACC | -0.0812
124 | GGGACCCC | -0.282
125 | AAGGAGGT | -0.236

Row | Sequence | PBM E-score
126 | ACTCCAAA | 0.197
127 | CTTCCCTA | -0.166
128 | ACCATCCC | -0.0582
129 | AGTTGCCA | -0.223
130 | CCTGTCGA | -0.125
131 | CTGGTAAC | -0.0807
132 | AAAATGAG | 0.264
133 | AATGACGG | -0.102
134 | CACTGTGC | 0.0911
135 | CACAGGGG | 0.0318
136 | ATCGCTAG | -0.0983
137 | GGGGAAGA | -0.177
138 | TGCGAACA | -0.0364
139 | AGTAGAAG | -0.158
140 | AAGACAGT | 0.172
141 | ACAGGGGC | -0.231
142 | CCCCGAAC | -0.178
143 | CAGTGGTA | -0.123
144 | AAGGGGAA | -0.287
145 | AATCTGGG | -0.183
146 | ATAAGCGG | 0.0739
147 | GCACCCAC | 0.0735
148 | AACAGACT | 0.176
149 | AGCTAGGA | -0.0898
150 | ACTAGGAT | 0.222

Row | Sequence | PBM E-score
151 | CCCGTACC | -0.31
152 | CAGTTAGC | -0.147
153 | AACGATCA | 0.0743
154 | AAACTGAG | 0.144
155 | GTGGCCGA | -0.141
156 | AGCAGGAC | -0.108
157 | GTGGATTA | -0.0636
158 | CACTCAGA | 0.0961
159 | TATGTGGA | 0.0736
160 | ATGACCGG | -0.128
161 | GATTCTCC | 0.215
162 | AGTATTTC | 0.0118
163 | CCCCTGAC | 0.173
164 | CCCTTCAA | -0.0771
165 | AAACTCGT | -0.0123
166 | TAGGAGAA | -0.0604
167 | AAATCGGT | -0.108
168 | ACTCGAGC | 0.0418
169 | AACGTTTC | -0.21
170 | CGCAGAAA | -0.0505
171 | GGTAGTGA | 0.0671
172 | GGACGACA | -0.0297
